Results: publication PMC6451091
The other results are listed elsewhere or left out. For part of these data: At the low end of the ranking the order means little. For part of these data: The protein was read in a cell extract, so binding may be indirect.

Experiments:
Conditions in all cases: 20 mM HEPES pH 7.9, 100 mM NaCl, 1 mM DTT, 0.2 mg/mL BSA, 0.02% Triton X-100, 2% milk, 0.4 mg/mL salmon testes DNA; 1 h; temperature not stated; high values mean tight binding; double strand, one strand shown; sequences stand for … in GCCTAGCAC…GTGCTAGGTCTTGATTCGCTTGACGCTGCTG
PU.1 (IVT) = PU.1 (IVT) (UniProt P17947); assay: protein-binding microarray (PBM)
[1] = biological target: T1, FLI1 (endogenous, THP-1 nuclear extract) (UniProt Q01543); assay: nuclear extract protein-binding microarray (nextPBM)
T1 sequence: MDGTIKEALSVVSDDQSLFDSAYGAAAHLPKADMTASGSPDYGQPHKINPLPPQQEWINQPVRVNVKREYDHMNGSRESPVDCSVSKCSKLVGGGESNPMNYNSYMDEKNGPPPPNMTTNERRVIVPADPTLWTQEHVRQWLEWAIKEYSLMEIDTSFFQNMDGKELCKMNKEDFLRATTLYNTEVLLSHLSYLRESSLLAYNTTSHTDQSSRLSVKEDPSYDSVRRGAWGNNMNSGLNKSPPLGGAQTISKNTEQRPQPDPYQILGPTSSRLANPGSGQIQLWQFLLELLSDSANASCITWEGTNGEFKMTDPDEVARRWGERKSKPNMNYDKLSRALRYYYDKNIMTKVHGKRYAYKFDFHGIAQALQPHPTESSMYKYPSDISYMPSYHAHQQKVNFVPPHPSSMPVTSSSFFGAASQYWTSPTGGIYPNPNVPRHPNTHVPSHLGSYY

[2] = system: PU.1 (endogenous, THP-1 nuclear extract) + IRF8 (endogenous, THP-1 nuclear extract); assay: as above

| Sequence | binding signal (PU.1 (IVT)) | binding signal [1] | binding signal [2] |
| --- | --- | --- | --- |
| TGGCAGAGGAAATGAAACTA | 1.28 z-score | 2.61 z-score | 31 z-score |
| GGTAAGAGGAACTGAAAGCT | 3.88 z-score | 1.92 z-score | 4.79 z-score |
| TAAAACAGGAAGTGAAACCA | 7.54 z-score | 5.58 z-score | 78.2 z-score |
| CTGGCAGGGAAGTGAAAGCA | 1.49 z-score | 1.04 z-score | 4.78 z-score |
| CTGACAGGGAAGTGAAAGCA | 2.58 z-score | 1.3 z-score | 7.74 z-score |
| CTGGCAGGGAACTGTAACTC | 0.407 z-score | 0.0734 z-score | -0.0623 z-score |
| TTAAACAGGAAGTGAAACCA | 5.61 z-score | 5.92 z-score | 75.2 z-score |
| CGAAAAGGGAAGTGAAACTC | 6.24 z-score | 3.77 z-score | 72.2 z-score |
| TGAAACATGAAGTGAAACCA | 0.433 z-score | 0.0599 z-score | 29.4 z-score |
| AGAAAGGGGAACAGAAACTG | 3.94 z-score | 1.87 z-score | 29.6 z-score |
| CAGAAAGGGAAGTGAAACTG | 4.81 z-score | 3.32 z-score | 73.5 z-score |
| AAAAAGCAGAAGTGAAACTT | 6.89 z-score | 3.56 z-score | 64.5 z-score |
| CTGGCAGTGAACTGAAACTC | 0.196 z-score | -0.255 z-score | 7.59 z-score |
| TAGAATAGGAAGTGAAACTC | 3.91 z-score | 3.71 z-score | 53 z-score |
| AAAAAGAGGAAGGGAAACTA | 5.12 z-score | 2.73 z-score | 17.4 z-score |
| AAAAAAAAGAAATGAAAGTA | 0.389 z-score | 0.166 z-score | 6.13 z-score |
| AGAAAGAGGAAGGGAAACTA | 4.07 z-score | 2.35 z-score | 13.1 z-score |
| GATAAAAGGAACTGAAAGCT | 2.21 z-score | 0.861 z-score | 1.44 z-score |
| TCTCAGAGGAACTGAAACTG | 1.39 z-score | 0.846 z-score | 23.9 z-score |
| GTATCAAGGAACTGAAACTC | 0.722 z-score | 0.414 z-score | 10.4 z-score |

| Sequence | binding signal (PU.1 (IVT)) | binding signal [1] | binding signal [2] |
| --- | --- | --- | --- |
| AAAAAGGGGAAGCGAAACTT | 6.36 z-score | 3.45 z-score | 68.2 z-score |
| CTTTTAAGGAACTGAAACTC | 2.98 z-score | 2.11 z-score | 26.8 z-score |
| CAAAAGCAGAAGTGAAACTT | 5.34 z-score | 3.39 z-score | 62.1 z-score |
| CCTGGGAGGAAGTGAAACTC | 3.42 z-score | 3.63 z-score | 49.1 z-score |
| AAAAGGAGGAAGTGAAAGTA | 6.69 z-score | 4.47 z-score | 56.2 z-score |
| GATAGGAGGAACTGAAAGCT | 2.1 z-score | 0.738 z-score | 3.41 z-score |
| TAAAGGAGGAACTAAAACCA | 4.4 z-score | 1.54 z-score | -0.0269 z-score |
| TGAAACAGGAGGTGAAACCA | -0.646 z-score | 0.467 z-score | 5.25 z-score |
| TGAAACAGGGAGTGAAACCA | -0.393 z-score | -0.763 z-score | 12.6 z-score |
| CTGCGAGGGAAGTGAAAGCA | 1.48 z-score | 1.4 z-score | 7.93 z-score |
| TGGCAGAGGAAGTGATACTA | 3.27 z-score | 2.87 z-score | 7.11 z-score |
| ACAATGGAGAAGTGAAACTG | 2.41 z-score | 1.27 z-score | 53 z-score |
| GATATGAGGAACTGAAAGCT | 4.06 z-score | 1.38 z-score | 5.26 z-score |
| GGAAGGCAGAAGTGAAAGCA | 0.862 z-score | 0.581 z-score | 5.56 z-score |
| CATTTGTAGAAGTGAAACTC | 0.601 z-score | -0.411 z-score | 26.4 z-score |
| GAAATAAGGAAGTGAAACTC | 6.7 z-score | 3.93 z-score | 63.4 z-score |
| TAAAGGAGGAACGGAAACCA | 1.15 z-score | 3.44 z-score | 3.8 z-score |
| GATTAGAGGAACTGAAAGCT | 3.32 z-score | 1.4 z-score | 2.97 z-score |
| TAAAGGAGGAACTGAAACAA | 3.35 z-score | 1.36 z-score | 9.8 z-score |
| TGAAACAGGAAGTTAAACCA | 6.84 z-score | 5.15 z-score | 1.56 z-score |

| Sequence | binding signal (PU.1 (IVT)) | binding signal [1] | binding signal [2] |
| --- | --- | --- | --- |
| GGTGTGGGGAAGTGAAACCT | 3.54 z-score | 2.17 z-score | 36.8 z-score |
| CTGCCAGGGGAGTGAAAGCA | -0.635 z-score | -0.652 z-score | 1.33 z-score |
| GATAAGAGGAACTGCAAGCT | 3.52 z-score | 1.36 z-score | -1.02 z-score |
| TGAGAGGAGAAGTGAAACCC | 1.26 z-score | 0.449 z-score | 14.6 z-score |
| TGAGAGGAGAATTGAAACCT | -0.143 z-score | -0.0677 z-score | 3.54 z-score |
| TGAAACAGGAAGTGAAAGCA | 6.78 z-score | 5.51 z-score | 37.5 z-score |
| TATAAAGGGAAGTGAAAATG | 4.52 z-score | 2.17 z-score | 3.77 z-score |
| TAAAGGTGGAACTGAAACCA | 1.02 z-score | 0.607 z-score | 20.2 z-score |
| GTGGGAGGGAAGTGAAACTC | 2.37 z-score | 2.32 z-score | 34.9 z-score |
| GAAATAGGGAAGTGAAACTG | 7.09 z-score | 3.62 z-score | 79.2 z-score |
| GATAAGAGGAACTGATAGCT | 3.9 z-score | 1.72 z-score | 2.15 z-score |
| TAAAGGAGGAGCTGAAACCA | -0.546 z-score | -0.601 z-score | 2.11 z-score |
| AAAAAAAGGAGATGAAAGTA | -0.187 z-score | 0.244 z-score | 2.97 z-score |
| CGGCAGAGGAAGTGAAACTA | 3.19 z-score | 3.72 z-score | 70.7 z-score |
| TGATAGGAGAAGTGAAACCT | 1.44 z-score | 0.768 z-score | 31.6 z-score |
| ATAAAGAGGAAGCGAAACTG | 4.76 z-score | 3.21 z-score | 72.7 z-score |
| GATAAGAGGAGCTGAAAGCT | 0.24 z-score | -0.348 z-score | -0.214 z-score |
| TTGGAAAGGAAGTGAAACTG | 2.04 z-score | 3.15 z-score | 40.9 z-score |
| CTGGCAGGGAACTGAAACTG | 0.54 z-score | 0.217 z-score | 17.1 z-score |
| AGAAAGAGGAAGAGAAACTT | 4.63 z-score | 2.28 z-score | 11.7 z-score |
